From the supplement of paper PMC10126150
Values marked as one replicate rest on one cluster of the flow cell; about a third of the high ones do not repeat.

Test system: ATP
Assay: switch fluorescence ratio, 500 uM ATP over buffer (Cy3 cluster intensity, sum of 5 cycles each) (fold (ratio)); higher = stronger signal-on switching upon ATP binding; sequences stand for … in TCGTCGGCAGCGTCAGATGTGTATAAGAGACAGTTTTTTTTTTTTTTTTTTTTTTTTT…TC
Settings: aptamer strand: ATP DNA aptamer (quencher-CACCTGGGGGAGTATTGCGGAGGAAGG + anchor), 100 nM annealed; ATP concentration: 500 uM; one replicate
Method in brief: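 Per cluster, summed Cy3 intensity from the target cycles was divided by that from the buffer cycles to give the fluorescence ratio, then averaged per switch-domain sequence. Clusters outside 100-1000 RFU were excluded. The Cy3-labelled switching-strand clusters, on a modified Illumina MiSeq flow-cell, were annealed to 100 nM quencher-labelled ATP aptamer and imaged in selection buffer, then after 15 min with 500 uM ATP at 22 °C, for five cycles with NaOH stripping and re-annealing between them.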
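Note: ATP exposure 15 min at 22 °C before imaging.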

Sequence | switch fluorescence ratio
CACGTCTGCG | 0.958
AGGCCCGTGA | 0.999
ACTACGGGGC | 1.18
AACCGTATCG | 0.904
ACGGAACTGG | 1.11
CCTTCACGAG | 1.32
ACCATGATCG | 1.02
TCGGAATAGG | 1.06
GATTTTGGA | 0.978
CTCAAATCGC | 1.1
AAAACTAGG | 0.995
GTGTGGACCA | 1.04
ATTCGGCTGT | 0.991
AGTGTCGGTC | 1.01
AAGGAGAGTT | 1
GACTAAGCAC | 1.39
CGCGACTGAC | 2.12
CCTAAATGGT | 1.01
TGTTTTGCAA | 5.25
GCGTGACTGG | 1.03
GCCGGGGT | 0.992
GGGGATATCC | 0.964
CCACCAGACT | 1.2

Sequence | switch fluorescence ratio
TGGGCTATGG | 1.03
AGAGATAC | 1.05
CCGTTGGTTG | 0.993
GGTCAGATCA | 1.01
CGAACAGGGT | 1.01
TGGTTTTGTC | 1.03
CGGGTACGTT | 0.944
CTAGAAGCAG | 1.02
TAGGAGGGTA | 1.02
CCGAGTTTTA | 1.26
GGAGCAGCGA | 1.12
AGCATTTTTT | 0.966
GGGGCAGGC | 0.834
CGATGACGA | 1.08
TACGTAGGCC | 1.11
GTGGTACCAG | 1.01
TTGCTGACTA | 1.01
GTGCGGGAGG | 1
AGGAAGACTC | 1.33
TAGACCCCTG | 1.01
TGGCGTTG | 0.961
TTTTCACTCT | 1.01
CATGGCTGAT | 0.994

Sequence | switch fluorescence ratio
CGGAGGAATC | 2.98
CTTATCGA | 0.974
GACGCTGTAG | 1.19
CATAGCGACA | 1.05
ATCGGTCTAT | 0.98
TGGATGCTTC | 0.996
ATCCCCGGGG | 1.03
ATAAGGAGCA | 1.03
TATGCGTATG | 0.981
ACTGGAGGGG | 0.968
CTAGGGCGAC | 0.989
CTTCATCGGC | 2.32
ATGACATTGT | 0.975
CTCATCACGA | 0.994
GCTTTGGACT | 1.02
AACACTATGC | 1.07
AGCGTTATGG | 1.02
GTGTTACTCG | 1.05
CATAAATTTC | 0.98
CTAGTACAAA | 1.01
ACGCCGTCCG | 1.03
ATTGGGAG | 1.01
TAACGAGCGG | 0.942

Sequence | switch fluorescence ratio
CACGAACACA | 1.64
TCGGGGTACC | 1.01
AATACCAACT | 1.11
GTCTAGGGAT | 0.983
GCGAGGTCGT | 0.958
TGGTGGAAGA | 0.991
TTATCCTCAC | 1.07
AGAAAAGGAC | 0.985
AGTTTATCTA | 1.01
GTTTTCAAGA | 0.997
GGTGGTAATG | 0.93
AAAGTTGGCC | 1.11
GTGATCGATC | 1.08
TATTATGCGC | 1
AGCAGTGACC | 1.15
ATCAATACCC | 1.25
GCGTGCTAAC | 1.03
AGTGCACGA | 1.01
CATGCGCGGG | 1.04
GGTGTGCTTC | 1.01
GGTAGAGCCG | 1
CAGCATTTG | 1.02
CGGGCTCTTT | 0.986

Sequence | switch fluorescence ratio
CTCATCTTTT | 1.01
TGGGAAGTAG | 1.02
GACACTTACT | 1.37
TGGACCCCCT | 1.36
CAGTGTTTTC | 0.975
CCGTATTCT | 1.05
TCCGTAGGAA | 1.09
TTTGGCGACG | 0.958
CCAGTGATCA | 0.985
GTTGCTTCCT | 1.24
TCTTTGTAAA | 0.984
GCCGTCTACT | 1.01
AATGGGTGCC | 1.01
GCTAGCATCG | 0.995
CTGCTGGGGG | 1.03
CATATGGAA | 0.987
GGGACCGGAC | 1.06
CAAAGTAGGA | 1
AACGGCATT | 1.02
TTAGGGTGCT | 0.995
CGAGGCCTGC | 1.1
CTGCCATGTG | 1.19
TATTCAGGGC | 1.05

Sequence | switch fluorescence ratio
TCGTTGGCAC | 1.03
ACCTCGATCT | 1.15
GCCGAGAACG | 1.06
CGCCGTCTGC | 0.95
AGTCGTGAGG | 1.01
TTCGATTGGC | 1.01
GCGACTTAAA | 1.03
AATATGGGAA | 1.04
AAATGATCTT | 1
TCAGACACGT | 1.21
CCGGGCTTGT | 1.06
CGCCGAGGCC | 1.04
GATCAGACGA | 0.94
CTAGGCGGTA | 1.08
AACGTTGTCT | 0.991
ATGTCAGGAC | 1.01
GGATTTATGG | 1.02
TTTTATTATA | 0.998
GTGGAGGTTT | 0.956
TCATTTTCAT | 0.978
ATACCGAGAC | 1.16
TCTCCGTTAA | 5.33
CACCTACCCT | 1.32

Sequence | switch fluorescence ratio
TTATCGACGA | 1.08
GCCGCCCCGT | 1.05
AAGTCCTA | 0.964
AATCGAAGCC | 0.967
GCGGCTGTGT | 0.977
GTACGAAGTA | 0.983
AAGGTAGCCA | 1.02
CCTCAAGGTA | 1.99
TGGTAGGCAG | 0.979
CCACCGTGCT | 1.25
GGTAAGAGAA | 1.02
ACAGATCGGG | 1.04
AGGATAAAG | 0.99
GTTGAGAAAG | 0.969
GATATAGTCG | 0.969
AAAATTGATA | 0.985
CGTGGAGAG | 1.04
CAAGTTGGGC | 0.993
GAAACCGTGT | 1.03
CGGAGACACT | 1.03
